# From PubChem BioAssay AID504333 (National Center for Advancing Translational Sciences (NCATS), 2011)
# About 16,000 (4.4%) of roughly 360,000 compounds were called active. This list was built around the results that the source calls inconclusive (neither active nor inactive); the mix of calls is not that of the screen. The call rests on the fitted dose curve; in most records, active means well fitted inhibition curve with a large enough effect; inconclusive means small, poorly fitted or top-dose-only effect; inactive means no such curve, though single readings can be large or run the other way. Potencies beside an inconclusive call are fits to weak or partial responses and may not hold up.
# Target: Bromodomain adjacent to zinc finger domain protein 2B (Homo sapiens) (UniProt Q9UIF8)
# Chain of UniProt Q9UIF8 (Q9UIF8 whole entry, looked up, the tested form may be a part): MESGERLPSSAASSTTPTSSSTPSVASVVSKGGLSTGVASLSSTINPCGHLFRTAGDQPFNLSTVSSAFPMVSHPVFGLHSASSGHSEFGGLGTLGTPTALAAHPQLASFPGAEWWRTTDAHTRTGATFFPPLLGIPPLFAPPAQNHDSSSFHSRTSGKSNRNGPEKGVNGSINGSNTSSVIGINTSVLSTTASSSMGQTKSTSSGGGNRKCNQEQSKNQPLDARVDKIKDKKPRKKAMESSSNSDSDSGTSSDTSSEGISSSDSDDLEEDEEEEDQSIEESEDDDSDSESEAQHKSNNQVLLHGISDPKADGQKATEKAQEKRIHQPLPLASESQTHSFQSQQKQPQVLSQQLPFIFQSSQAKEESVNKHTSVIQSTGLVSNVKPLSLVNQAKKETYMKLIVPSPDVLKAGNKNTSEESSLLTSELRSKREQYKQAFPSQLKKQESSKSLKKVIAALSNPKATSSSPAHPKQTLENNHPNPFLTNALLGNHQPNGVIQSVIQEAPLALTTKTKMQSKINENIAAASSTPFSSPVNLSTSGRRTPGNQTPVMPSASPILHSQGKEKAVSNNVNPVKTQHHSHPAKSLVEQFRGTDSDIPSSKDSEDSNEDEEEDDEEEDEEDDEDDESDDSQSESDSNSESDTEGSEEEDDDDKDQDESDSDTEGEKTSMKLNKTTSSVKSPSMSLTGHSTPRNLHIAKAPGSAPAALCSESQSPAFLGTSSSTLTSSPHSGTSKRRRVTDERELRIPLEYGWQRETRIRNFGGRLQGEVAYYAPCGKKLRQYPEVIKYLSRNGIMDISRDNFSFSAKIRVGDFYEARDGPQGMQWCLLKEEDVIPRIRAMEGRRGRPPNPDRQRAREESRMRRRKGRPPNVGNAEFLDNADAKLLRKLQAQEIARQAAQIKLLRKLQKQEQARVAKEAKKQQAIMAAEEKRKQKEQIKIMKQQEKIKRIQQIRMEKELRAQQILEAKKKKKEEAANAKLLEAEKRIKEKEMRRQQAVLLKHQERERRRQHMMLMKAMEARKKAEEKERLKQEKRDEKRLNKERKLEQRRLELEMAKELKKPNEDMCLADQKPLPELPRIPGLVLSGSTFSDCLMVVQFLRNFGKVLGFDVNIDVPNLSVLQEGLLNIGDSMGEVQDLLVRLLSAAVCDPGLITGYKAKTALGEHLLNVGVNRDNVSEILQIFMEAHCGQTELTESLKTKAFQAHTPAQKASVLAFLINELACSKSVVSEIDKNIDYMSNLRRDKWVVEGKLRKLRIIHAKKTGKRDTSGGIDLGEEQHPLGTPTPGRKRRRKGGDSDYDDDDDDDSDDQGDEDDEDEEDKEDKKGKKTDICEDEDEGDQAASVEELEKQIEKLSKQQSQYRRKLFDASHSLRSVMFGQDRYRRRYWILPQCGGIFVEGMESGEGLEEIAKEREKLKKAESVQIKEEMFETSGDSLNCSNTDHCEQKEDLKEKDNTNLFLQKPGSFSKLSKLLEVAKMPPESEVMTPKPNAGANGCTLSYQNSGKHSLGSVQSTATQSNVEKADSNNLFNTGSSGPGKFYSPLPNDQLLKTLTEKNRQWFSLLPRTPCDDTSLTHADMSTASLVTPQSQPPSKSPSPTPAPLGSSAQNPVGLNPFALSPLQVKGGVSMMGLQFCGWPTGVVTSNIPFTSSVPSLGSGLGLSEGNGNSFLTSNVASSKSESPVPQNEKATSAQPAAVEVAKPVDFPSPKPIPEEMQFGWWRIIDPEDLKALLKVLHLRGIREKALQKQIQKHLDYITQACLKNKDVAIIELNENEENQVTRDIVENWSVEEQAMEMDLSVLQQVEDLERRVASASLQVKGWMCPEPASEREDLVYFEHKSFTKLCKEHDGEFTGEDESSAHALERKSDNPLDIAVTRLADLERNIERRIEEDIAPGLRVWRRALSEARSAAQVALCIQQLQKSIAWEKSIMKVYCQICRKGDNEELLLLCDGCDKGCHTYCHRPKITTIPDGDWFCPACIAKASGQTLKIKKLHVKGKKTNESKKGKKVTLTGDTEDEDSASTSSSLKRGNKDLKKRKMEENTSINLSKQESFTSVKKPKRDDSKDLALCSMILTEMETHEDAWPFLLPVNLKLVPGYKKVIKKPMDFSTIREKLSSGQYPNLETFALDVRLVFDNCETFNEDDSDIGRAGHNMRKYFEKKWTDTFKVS
# Experiment: qHTS Assay for Inhibitors of BAZ2B; further: nearly all actives have a fitted effect of over 60% in size
# Settings: AlphaScreen BAZ2B-H3K14Ac peptide displacement; series mostly up to 114 µM
# In short: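 BAZ2B (50 nM) with biotin-H3(5-23)K14Ac peptide (50 nM) in PBS pH 7.4, 0.01% Tween-20, preformed 30 min, then compound 30 min at room temperature; top concentration 110uM. AlphaScreen streptavidin donor/nickel chelate acceptor beads (10 ug/mL final), 20 min dark, signal read.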
# Potency means the concentration at half of the fitted maximal effect; tags describe the fitted curve by direction and shape.
row,SMILES,Potency
1,CCOC(=O)c1sc2ccccc2c1S(=O)(=O)Nc1cc(OC)ccc1OC,inactive
2,Cc1ccc(NS(=O)(=O)c2ccc(N/N=C/c3ccccc3OCC(=O)O)c([N+](=O)[O-])c2)c(C)c1,active: 7.94 µM
3,Cc1cc(C)c(NC(=O)CSc2nc3ccccc3c3nc(-c4ccccc4)nn23)c(C)c1,inactive
4,Cc1c(C(=O)Nc2ccccn2)sc2nc3n(c(=O)c12)CCC3,inactive
5,CCOC(=O)c1ccoc1CSCc1ccc(C(=O)OC)o1,inactive
6,O=C(c1ccc(NS(=O)(=O)c2ccccc2)cc1)N1CCN(Cc2ccc3c(c2)OCO3)CC1,inactive
7,O=[N+]([O-])c1ccc(CNc2ccc(F)cc2)s1,active: 39.8 µM
8,O=C(CN1CCN(c2ncccn2)CC1)NCCC1=CCCCC1,active: 50.1 µM
9,O=C(Nc1ccc(-c2nc3cc(Cl)ccc3o2)cc1)c1cc(Br)ccc1Cl,inactive
10,O=C(NNC1=NCCC1)c1cccc(Br)c1,inactive
11,COc1cccc2oc3cc(C#Cc4ccccn4)ccc3c(=O)c12,active: 39.8 µM
12,Cc1ccc(-n2c(=O)c3c(C)c(C(=O)N(C)C)sc3n(CC(=O)N(C)c3ccccc3)c2=O)cc1C,inactive
13,COc1ccc(CCn2c(=N)c(C(=O)N3CCN(C)CC3)cc3c(=O)n4ccccc4nc32)cc1,inactive
14,O=C(Nc1ccc(N2CCCC2)cc1)C(c1ccccc1)c1ccccc1,"inconclusive: 63.1 µM [inhibitor, single point]"
15,Cc1c(C(=O)N2CCCC2)oc2c1-c1nn(CC(=O)NCc3ccc(OC(C)C)cc3)cc1CC2,"inconclusive: 79.4 µM [inhibitor, single point]"
16,COc1ccc(-c2nnc(SCc3ccccn3)n2C)cc1,inactive
17,CSc1nnc(-c2sccc2-n2cccc2)o1,"inconclusive: 79.4 µM [inhibitor, single point]"
18,CN(CC(=O)Nc1ccc(OC(F)(F)F)cc1)S(=O)(=O)c1ccc2c(c1)CCC(=O)N2,inactive
19,Cc1ccc(NCC(O)C(O)C(O)CO)c(N=Nc2ccccc2)c1C (stereo not drawn),active: 11.2 µM
20,Cc1cccc(N2CCN(C(=O)c3ccc(NC4=NC5CS(=O)(=O)CC5S4)cc3)CC2C)c1 (stereo not drawn),"inconclusive: 89.1 µM [inhibitor, single point]"
21,CC(=O)c1ccccc1NC(=O)COC(=O)CN1C(=O)C2CCCCC2C1=O (stereo not drawn),"inconclusive: 39.8 µM [inhibitor, single point]"
22,O=c1[nH][nH]cc1C=Nc1cc(Cl)ccc1O,active: 14.1 µM
23,Oc1ccc(Br)cc1-c1cc(-c2ccccc2)n[nH]1,inactive
24,S=C(NCc1ccccc1)Nc1nccs1,"inconclusive: 31.6 µM [inhibitor, partial curve]"
25,Cc1ccc(CC(=O)Nc2ccc(C(=O)N3CCCCC3)cc2)cc1,inactive
26,CCOC(=O)c1cc(-c2ccccc2)n(CC(=O)Nc2cccc(OC)c2)c1C,"inconclusive: 89.1 µM [inhibitor, single point]"

row,SMILES,Potency
1,CC1(C)Cc2c(sc3nn[nH]c(=O)c23)CO1,inactive
2,O=C(CSc1nccn1Cc1ccc2c(c1)OCO2)Nc1ccccc1F,"inconclusive: 39.8 µM [inhibitor, partial curve]"
3,Cc1ccc(-c2nc3ccccn3c2NCc2ccc3c(c2)OCO3)cc1,"inconclusive: 25.1 µM [inhibitor, single point]"
4,O=C(NC(=S)Nc1ccc(S(=O)(=O)Nc2nccs2)cc1)c1cccnc1,"inconclusive: 79.4 µM [inhibitor, single point]"
5,COc1cc(NC(=O)CCn2nc(C)cc2C)cc(OC)c1OC,inactive
6,CC/C(=N/Nc1ccccc1)c1cnnc(-c2ccccc2)n1,inactive
7,CCSc1ccccc1C(=O)N1CCN(c2nc3ccccc3s2)CC1,"inconclusive: 89.1 µM [inhibitor, single point]"
8,N#Cc1c(-c2ccc(Cl)cc2)cc(-c2ccccc2)nc1SCC(=O)O,active: 56.2 µM
9,Clc1ccc(-c2nnc3sc(-c4ccc(Br)o4)nn23)c(Cl)c1,inactive
10,CC(C)n1c(N2CCN(C(=O)Nc3ccc(Cl)cc3)CC2)nc2ccccc21,inactive
11,Brc1ccc(-c2csc(N/N=C/c3ccc4c(c3)OCO4)n2)cc1,inactive
12,CC1(C)OC(C(O)(c2ccccc2)c2ccccc2)[C@@H](C(O)(c2ccccc2)c2ccccc2)O1 (stereo partly drawn),inactive
13,COCCCNC(=O)CCCn1c(SCC(=O)c2ccc(Br)cc2)nc2c(sc3ccccc32)c1=O,"inconclusive: 39.8 µM [inhibitor, partial curve]"
14,CCCc1cc(=O)oc2cc(C)cc(OCC(=O)NC3CCN(Cc4ccccc4)CC3)c12,"inconclusive: 79.4 µM [inhibitor, single point]"
15,CCOc1ccc(C(=O)N2CC(=O)Nc3ccc(C)cc3C2c2ccc(F)cc2)cc1OCC (stereo not drawn),inactive
16,O=C(Cn1c(=O)oc2ccccc21)Nc1n[nH]c(=S)s1,inactive
17,CCOC(=O)C1=C(N)N2C(=O)C(C)SC2=C(C(=O)OCC)C1c1ccc(O)cc1 (stereo not drawn),"inconclusive: 70.8 µM [inhibitor, partial curve]"
18,Cc1ccc(/C=N/NC(=O)c2ccc(NC(=O)c3ccc(Cl)cc3)cc2)o1,"inconclusive: 89.1 µM [inhibitor, single point]"
19,COc1ccc(-c2ccc(SCC(=O)c3cccs3)nn2)cc1,inactive
20,CCn1ncc(Br)c1C(=O)Nc1sc2c(c1C(N)=O)CCC2,inactive
21,COc1ccc(-c2nc(=S)[nH][nH]2)cc1OC,active: 56.2 µM
22,O=C(OCc1ccccc1)/C(=C(\O)c1ccccc1Br)c1ccc(-c2ccccc2)cn1,active: 56.2 µM
23,COc1ccc(N2CSC3=C(C#N)C(c4cccc(OC)c4OC)CC(=O)N3C2)cc1 (stereo not drawn),"inconclusive: 50.1 µM [inhibitor, partial curve]"
24,Cc1ccc(S(=O)(=O)Oc2ccc3c(c2)O/C(=C\c2cccnc2)C3=O)cc1,inactive
25,Cc1c(Br)c([N+](=O)[O-])nn1CCCC(=O)Nc1sc2c(c1C#N)CCC2,"inconclusive: 39.8 µM [inhibitor, partial curve]"
26,Cc1ccc(C2(C)NC(=O)N(CC(=O)c3ccc(Cl)s3)C2=O)cc1 (stereo not drawn),"inconclusive: 89.1 µM [inhibitor, single point]"

row,SMILES,Potency
1,COc1cc2c(C(=O)N3CCN(Cc4ccc5c(c4)OCO5)CC3)cn(C)c(=O)c2cc1OC,"inconclusive: 89.1 µM [inhibitor, single point]"
2,CCCNS(=O)(=O)c1ccc2c(c1)n(C)c(=O)n2C,"inconclusive: 79.4 µM [inhibitor, partial curve]"
3,CCOC(=O)c1ccccc1NC(=O)CSc1nc(=O)[nH]c2c1CCCC2,inactive
4,COc1ccc(NC(=O)c2ccco2)cc1NC(=O)c1cc2ccccc2o1,inactive
5,O=C(CSc1nn(-c2ccc(F)cc2)c(=S)s1)NC(=O)NCc1ccco1,"inconclusive: 70.8 µM [inhibitor, single point]"
6,O=C(NC1CCCCC1)C(c1cc2c(cc1[N+](=O)[O-])OCO2)N1CCCCC1 (stereo not drawn),"inconclusive: 70.8 µM [inhibitor, single point]"
7,Cc1cc(C(=O)O)c(=O)[nH]c1C,"inconclusive: 100 µM [inhibitor, single point]"
8,O=C(O)c1ccc(/C=N/Nc2nc3ccccc3[nH]2)cc1,"inconclusive: 89.1 µM [inhibitor, single point]"
9,Cc1ccc(/C=C/C(=O)c2ccccc(=O)c2O)cc1C,active: 70.8 µM
10,Cc1ccc(NC(=O)CSc2ncc(-c3ccccc3)n2C(=O)c2ccccc2)cc1,"inconclusive: 44.7 µM [inhibitor, partial curve]"
11,Cc1cc(C(=O)OCC(=O)Nc2ccccc2[N+](=O)[O-])c2ccccc2n1,inactive
12,Cc1c(Cl)cccc1NC(=O)Nc1c[nH]c(=O)[nH]c1=O,inactive
13,CC1CCC(C(C)C)C(=O)/C1=C/c1ccc(N)cc1 (stereo not drawn),"inconclusive: 44.7 µM [inhibitor, partial curve]"
14,CCOc1ccc(NC(=O)c2cccc(-n3cccc3)c2)cc1S(=O)(=O)N1CCOCC1,active: 5.01 µM
15,Cc1ccc(-c2[nH]nc3c2C(c2ccsc2)C(C#N)=C(N)O3)cc1 (stereo not drawn),inactive
16,Oc1ccc(N=Nc2n[nH]c(-c3ccc(Cl)cc3)n2)cc1,"inconclusive: 39.8 µM [inhibitor, full curve]"
17,O=C1NC(=Nc2ccccc2Cl)S/C1=C\c1cc([N+](=O)[O-])ccc1O,"inconclusive: 44.7 µM [inhibitor, partial curve]"
18,CCc1ccc(NC(=S)NC2CCN(Cc3ccccc3)CC2)cc1,"inconclusive: 89.1 µM [inhibitor, single point]"
19,COC(=O)c1ccc(-n2nnnc2SCC(=O)NCc2cccc(C(=O)O)c2)cc1,"inconclusive: 100 µM [inhibitor, single point]"
20,O=C(NNc1ccccc1[N+](=O)[O-])Nc1ccccc1,"inconclusive: 89.1 µM [inhibitor, single point]"
21,COc1ccc(-c2cc(C(F)(F)F)n3nc(C(=O)O)cc3n2)cc1OC,"inconclusive: 89.1 µM [inhibitor, single point]"
22,Cc1cc(C)c(C#N)c(SCSCc2ccccc2)n1,inactive
23,COc1ccc(C(C)(C)NC(=O)C2CCC(=O)N(C3CC3)C2)cc1OC (stereo not drawn),inactive
24,CCOc1ccc2c(c1)-c1c(ssc1=S)C(C)(C)N2,active: 10 µM
25,CCCC/C(C)=N/NC(=O)C(=O)NCCc1ccccc1,"inconclusive: 89.1 µM [inhibitor, single point]"
26,COc1ccc(NS(=O)(=O)c2ccc(N3CCCC3)c(NC(=S)Nc3ccc(SC(F)F)cc3)c2)cc1,"inconclusive: 79.4 µM [inhibitor, partial curve]"
